# The supplement of paper PMC8728848
# The list shows a part of the results.
# B1: Thrombomodulin (Mus musculus) (protein)
# chain: ALAKLQPTGSQCVEHECFALFQGPATFLDASQACQRLQGHLMTVRSSVAADVISLLLSQSSMDLGPWIGLQLPQGCDDPVHLGPLRGFQWVTGDNHTSYSRWARPNDQTAPLCGPLCVTVSTATEAAPGEPAWEEKPCETETQGFLCEFYFTASC
# Columns and labels:
# Assay in all cases: glycan array binding signal (z-score within array); higher = stronger binding
# Settings in all cases: glycan notation: IUPAC condensed, linker removed
# Fuc(a1-3)GlcNAc = biological target: Fuc(a1-3)GlcNAc
# Procedure, shortened: (§1)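 The binding signal is a Z-score computed within each array. Data were drawn from 3228 arrays in the Consortium for Functional Glycomics database, restricted to those with a known protein sequence. Scores were averaged over arrays of the same protein sequence at different concentrations or buffers, and over linkers, and negative values can be taken as non-binding.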
# [1] = biological target: Fuc(a1-3)[Gal(b1-4)]Glc6S
# Procedure, shortened: as §1
# [2] = biological target: Fuc(a1-3)[Gal(b1-4)]GlcNAc
# Procedure, shortened: as §1
# [3] = biological target: Fuc(a1-3)[Gal(b1-4)]GlcNAc(b1-2)Man
# Procedure, shortened: as §1
# [4] = biological target: Fuc(a1-3)[Gal(b1-4)]GlcNAc(b1-2)Man(a1-3)[Fuc(a1-3)[Gal(b1-4)]GlcNAc(b1-2)Man(a1-6)]Man(b1-4)GlcNAc(b1-4)GlcNAc
# Procedure, shortened: as §1
# [5] = biological target: Fuc(a1-3)[Gal(b1-4)]GlcNAc(b1-2)Man(a1-3)[Fuc(a1-3)[Gal(b1-4)]GlcNAc(b1-2)Man(a1-6)]Man(b1-4)GlcNAc(b1-4)[Fuc(a1-6)]GlcNAc
# Procedure, shortened: as §1
# [6] = biological target: Fuc(a1-3)[Gal(b1-4)]GlcNAc(b1-3)Gal(b1-3)[Fuc(a1-4)]GlcNAc
# Procedure, shortened: as §1
# [7] = biological target: Fuc(a1-3)[Gal(b1-4)]GlcNAc(b1-3)Gal(b1-4)[Fuc(a1-3)]GlcNAc
# Procedure, shortened: as §1
# [8] = biological target: Fuc(a1-3)[Gal(b1-4)]GlcNAc(b1-3)Gal(b1-4)[Fuc(a1-3)]GlcNAc(b1-3)Gal(b1-4)[Fuc(a1-3)]GlcNAc
# Procedure, shortened: as §1
# [9] = biological target: Fuc(a1-3)[Gal(b1-4)]GlcNAc(b1-3)GalNAc
# Procedure, shortened: as §1
# [10] = biological target: Fuc(a1-3)[Gal(b1-4)]GlcNAc(b1-6)GalNAc
# Procedure, shortened: as §1
# [11] = biological target: Fuc(a1-3)[Gal(b1-4)]GlcNAc(b1-6)[Gal(b1-3)GlcNAc(b1-3)]Gal(b1-4)Glc
# Procedure, shortened: as §1
# [12] = biological target: Fuc(a1-3)[Gal(b1-4)]GlcNAc6S
# Procedure, shortened: as §1
# [13] = biological target: Fuc(a1-3)[Gal3S(b1-4)]Glc
# Procedure, shortened: as §1
# [14] = biological target: Fuc(a1-3)[Gal3S(b1-4)]GlcNAc
# Procedure, shortened: as §1
# [15] = biological target: Fuc(a1-3)[Gal3S(b1-4)]GlcNAc6S
# Procedure, shortened: as §1
# [16] = biological target: Fuc(a1-3)[GalNAc(b1-4)]GlcNAc
# Procedure, shortened: as §1
# [17] = biological target: Fuc(a1-3)[GalNAc(b1-4)]GlcNAc6S
# Procedure, shortened: as §1
# Fuc(a1-4)GlcNAc = biological target: Fuc(a1-4)GlcNAc
# Procedure, shortened: as §1
# Fuc(b1-3)GlcNAc = biological target: Fuc(b1-3)GlcNAc
# Procedure, shortened: as §1
# Gal(a1-2)Gal = biological target: Gal(a1-2)Gal
# Procedure, shortened: as §1
# Gal(a1-3)Gal = biological target: Gal(a1-3)Gal
# Procedure, shortened: as §1
# Gal(a1-3)Gal(b1-3)GlcNAc = biological target: Gal(a1-3)Gal(b1-3)GlcNAc
# Procedure, shortened: as §1
# [18] = biological target: Gal(a1-3)Gal(b1-3)GlcNAc(b1-2)Man
# Procedure, shortened: as §1
# [19] = biological target: Gal(a1-3)Gal(b1-3)GlcNAc(b1-2)Man(a1-3)[Gal(a1-3)Gal(b1-3)GlcNAc(b1-2)Man(a1-6)]Man(b1-4)GlcNAc(b1-4)GlcNAc
# Procedure, shortened: as §1
# [20] = biological target: Gal(a1-3)Gal(b1-3)GlcNAc(b1-3)GalNAc
# Procedure, shortened: as §1
# [21] = biological target: Gal(a1-3)Gal(b1-3)GlcNAc(b1-6)GalNAc
# Procedure, shortened: as §1
# [22] = biological target: Gal(a1-3)Gal(b1-3)[Fuc(a1-4)]GlcNAc(b1-2)Man(a1-3)[Gal(a1-3)Gal(b1-3)[Fuc(a1-4)]GlcNAc(b1-2)Man(a1-6)]Man(b1-4)GlcNAc(b1-4)GlcNAc
# Procedure, shortened: as §1
# Gal(a1-3)Gal(b1-4)Glc = biological target: Gal(a1-3)Gal(b1-4)Glc
# Procedure, shortened: as §1
# Gal(a1-3)Gal(b1-4)GlcNAc = biological target: Gal(a1-3)Gal(b1-4)GlcNAc
# Procedure, shortened: as §1
# [23] = biological target: Gal(a1-3)Gal(b1-4)GlcNAc(b1-2)Man
# Procedure, shortened: as §1
# [24] = biological target: Gal(a1-3)Gal(b1-4)GlcNAc(b1-2)Man(a1-3)[Gal(a1-3)Gal(b1-4)GlcNAc(b1-2)Man(a1-6)]Man(b1-4)GlcNAc(b1-4)GlcNAc
# Procedure, shortened: as §1
# [25] = biological target: Gal(a1-3)Gal(b1-4)GlcNAc(b1-3)GalNAc
# Procedure, shortened: as §1
# [26] = biological target: Gal(a1-3)Gal(b1-4)GlcNAc(b1-6)GalNAc
# Procedure, shortened: as §1
# [27] = biological target: Gal(a1-3)Gal(b1-4)[Fuc(a1-3)]GlcNAc
# Procedure, shortened: as §1
# [28] = biological target: Gal(a1-3)Gal(b1-4)[Fuc(a1-3)]GlcNAc(b1-2)Man(a1-3)[Gal(a1-3)Gal(b1-4)[Fuc(a1-3)]GlcNAc(b1-2)Man(a1-6)]Man(b1-4)GlcNAc(b1-4)GlcNAc
# Procedure, shortened: as §1
# Gal(a1-3)GalNAc = biological target: Gal(a1-3)GalNAc
# Procedure, shortened: as §1
# [29] = biological target: Gal(a1-3)[Gal(a1-4)]Gal(b1-4)GlcNAc
# Procedure, shortened: as §1
# [30] = biological target: Gal(a1-4)Gal(b1-3)GlcNAc(b1-2)Man(a1-3)[Gal(a1-4)Gal(b1-3)GlcNAc(b1-2)Man(a1-6)]Man(b1-4)GlcNAc(b1-4)GlcNAc
# Procedure, shortened: as §1
# Gal(a1-4)Gal(b1-4)Glc = biological target: Gal(a1-4)Gal(b1-4)Glc
# Procedure, shortened: as §1
# Gal(a1-4)Gal(b1-4)GlcNAc = biological target: Gal(a1-4)Gal(b1-4)GlcNAc
# Procedure, shortened: as §1
# [31] = biological target: Gal(a1-4)Gal(b1-4)GlcNAc(b1-2)Man(a1-3)[Gal(a1-4)Gal(b1-4)GlcNAc(b1-2)Man(a1-6)]Man(b1-4)GlcNAc(b1-4)GlcNAc
# Procedure, shortened: as §1
# [32] = biological target: Gal(a1-4)Gal(b1-4)GlcNAc(b1-3)Gal(b1-4)Glc
# Procedure, shortened: as §1
# Gal(a1-4)GlcNAc = biological target: Gal(a1-4)GlcNAc
# Procedure, shortened: as §1
# Gal(a1-6)Glc = biological target: Gal(a1-6)Glc
# Procedure, shortened: as §1
binder,measurement,setting,value
B1,glycan array binding signal (z-score),Fuc(a1-3)GlcNAc,-0.027
same,glycan array binding signal (z-score),[1],0.318
same,glycan array binding signal (z-score),[2],-0.053
same,glycan array binding signal (z-score),[3],-0.518
same,glycan array binding signal (z-score),[4],-0.108
same,glycan array binding signal (z-score),[5],-0.197
same,glycan array binding signal (z-score),[6],-0.58
same,glycan array binding signal (z-score),[7],-0.348
same,glycan array binding signal (z-score),[8],-0.183
same,glycan array binding signal (z-score),[9],-0.145
same,glycan array binding signal (z-score),[10],-0.091
same,glycan array binding signal (z-score),[11],-0.344
same,glycan array binding signal (z-score),[12],0.478
same,glycan array binding signal (z-score),[13],-0.071
same,glycan array binding signal (z-score),[14],-0.161
same,glycan array binding signal (z-score),[15],-0.172
same,glycan array binding signal (z-score),[16],0.256
same,glycan array binding signal (z-score),[17],-0.425
same,glycan array binding signal (z-score),Fuc(a1-4)GlcNAc,3.52
same,glycan array binding signal (z-score),Fuc(b1-3)GlcNAc,-0.151
same,glycan array binding signal (z-score),Gal(a1-2)Gal,-0.043
same,glycan array binding signal (z-score),Gal(a1-3)Gal,-0.008
same,glycan array binding signal (z-score),Gal(a1-3)Gal(b1-3)GlcNAc,4.59
same,glycan array binding signal (z-score),[18],0.044
same,glycan array binding signal (z-score),[19],0.13
same,glycan array binding signal (z-score),[20],0.01
same,glycan array binding signal (z-score),[21],-0.107
same,glycan array binding signal (z-score),[22],0.179
same,glycan array binding signal (z-score),Gal(a1-3)Gal(b1-4)Glc,-0.137
same,glycan array binding signal (z-score),Gal(a1-3)Gal(b1-4)GlcNAc,-0.251
same,glycan array binding signal (z-score),[23],-0.4
same,glycan array binding signal (z-score),[24],-0.221
same,glycan array binding signal (z-score),[25],-0.121
same,glycan array binding signal (z-score),[26],-0.337
same,glycan array binding signal (z-score),[27],-0.285
same,glycan array binding signal (z-score),[28],0.955
same,glycan array binding signal (z-score),Gal(a1-3)GalNAc,-0.154
same,glycan array binding signal (z-score),[29],0.213
same,glycan array binding signal (z-score),[30],0.037
same,glycan array binding signal (z-score),Gal(a1-4)Gal(b1-4)Glc,0.022
same,glycan array binding signal (z-score),Gal(a1-4)Gal(b1-4)GlcNAc,-0.003
same,glycan array binding signal (z-score),[31],0.19
same,glycan array binding signal (z-score),[32],0.076
same,glycan array binding signal (z-score),Gal(a1-4)GlcNAc,-0.405
same,glycan array binding signal (z-score),Gal(a1-6)Glc,-0.306
